Measurements as given in the RNAGym collection of RNA variant scans (doi:10.1073/pnas.2313332121).
Variants at the floor of the assay are shown more often than the library holds them.

B1: TPR 5TU (parent)
chain: GGAUCUUCUCGAUCUAACAAAAAAGACAAAUCUGCCACAAAGCUUGAGAGCAUCUUCGGAUGCAGAGGCGGCAGCCUUCGGUGGCGCGAUAGCGCCAACGUUCUCAACUAUGACACGCAAAACGCGUGCUCCGUUGAAUGGAGUUUAUCAUG

Variants of: B1
Experiment: polymerase ribozyme fitness, log enrichment relative to wild type (log ratio); higher = more active; in vitro selection for triplet polymerase activity
Procedure, shortened: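 After PCR construction and transcription, each subunit's mutant library from a heterodimeric triplet polymerase ribozyme was annealed with a biotinylated primer, the partner subunit and triplets. Incubation was frozen, at −7 °C, and extended constructs were gel-excised, bound to streptavidin beads and amplified by RT-PCR, in one selection round done in triplicate. Fitness is the logarithm of a genotype's enrichment divided by that of the wild type, from inverse-variance-weighted replicate averages of Illumina-sequenced inputs and outputs. The base of the logarithm is 2, and genotypes needed ≥10 input reads and ≥1 read per output.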

Variant	polymerase ribozyme fitness (log ratio)
C57G G80A G84A	-0.169
C57A C63U C93G C116G U127A	≤ -4.2
U56A G68A C103U U148A	≤ -4.2
U56A U61G A66U G136U A138C G141C U145G	≤ -4.2
C57U C76G G84U C96U U134A	≤ -4.2
C57U A91U C99A U101G U130G G133C C149A	≤ -4.2
C57U G88U U102C C132U	≤ -4.2
U56G C93U A107G A120U	-4.12
U56G C57A A66U C75G C85U A121U U134A U144C	≤ -4.2
C57U U111G A137U	≤ -4.2
C57U A60C G86A C105G	≤ -4.2
C57G C103U A121C A142U C149U	≤ -4.2
U56A G70C G83U G143A	≤ -4.2
U56C C93U C114G A119G	-3.79
C57G G67A C85A U139C	≤ -4.2
C57G C85G	-1.95
C57A G88A C105G A119G A120G	≤ -4.2
C57U G86U A107U U130G	≤ -4.2
C57A C76G A113G G126A C129A U134G	≤ -4.2
C57G U61A C87U A89U C116U C118G A122G U139A	≤ -4.2
C57U G67A C79G C85U A110C	≤ -4.2
G58A A89G G94A	-1.91
U56A U104G A115C A142C	≤ -4.2
C57U A66G G71U C85U C95U A113C	≤ -4.2

Variant	polymerase ribozyme fitness (log ratio)
C57A G124U	-0.787
C57U A73C G86U C99U G143C	≤ -4.2
C57A U82A A121U G133C	-0.916
C57A G58A U61A G94C C131G U148G	≤ -4.2
U56A G84U	-1.11
U56A G84C	-1.66
U56A U82G G94A A120G U135C U139A	≤ -4.2
U56A G59U G83A G92U C99A G141C	≤ -4.2
U56C C72G U148A	≤ -4.2
C57U C95A A97C C123A	-0.924
U56G A150C	-3.51
C57U G59A G67C G94C	≤ -4.2
U56A G80U	-0.898
C57G U82A A98G	-3.69
U56A U78G G92U	≤ -4.2
U56C G83A C87G C123U G141A	≤ -4.2
U56C G58U C114U A119U	-1.67
C57A C75G	≤ -4.2
C57U U61A C76G G92A	≤ -4.2
G58A A64U G74A C79A U90C C96A C149A	≤ -4.2
C57U C93U A115C A142C A147U	≤ -4.2
U56A U77G G84U G88A G133A	≤ -4.2
U56A G68U G81C U145A	≤ -4.2
U56G G84U	-2.16

Variant	polymerase ribozyme fitness (log ratio)
U56G G84A	-3.48
C57A G68U G86A C149A	≤ -4.2
U56A G84U C95U G140C	≤ -4.2
U56G C93A U127A U151G	≤ -4.2
C57G C69A	-2.56
C57G C96A	-0.472
U56G G59A	-1.14
C57G G117U G124C	-1.64
C57G U78G C85U A113C G141C	≤ -4.2
U56G A91G	-3.24
C57G G71A A122C G133U	≤ -4.2
C57U G59C C79U G81C A142C U146A	≤ -4.2
C57A A113U	-1.86
U56A G80A U90A	≤ -4.2
U56A U90G C149U	≤ -4.2
C57A C96G U104C U151A	≤ -4.2
C57A C85G A89C G133C	≤ -4.2
U56A G152A	-2.52
U56A G152U	-2.37
C57G C114U	-1.83
C57A G59C A60G	0.42
C57G G124U U148G	≤ -4.2
C57G G71C C96U G112U C149A	≤ -4.2
C57A G70U C96U	-2.27

Variant	polymerase ribozyme fitness (log ratio)
G58A A89U C96A A115G	-1.15
C57A A73U G84A U135A	-2.22
U56G A60G C99U U102A	-2.07
U56A U82C G88C U144A	≤ -4.2
U56A G65U C72A C87G C93U	≤ -4.2
C57A C75A G83A C105U A122C	≤ -4.2
C57U G70U A97U	≤ -4.2
C57U U82A C85G A97C G126U	≤ -4.2
C57U G68U	-3.89
U56G C63U C93G	-3.47
C57G A60C	-2.4
C57U G126U U127G	≤ -4.2
C57U A73G G81A C95U C99U G143U U148C	≤ -4.2
U56A G58U C69U C95A C96A C118U	-2.19
U56A G59A C87G U90G A137U G143C U146C	≤ -4.2
C57A A107C C125A G133A G136A U151A	≤ -4.2
C57A G80A C93U A107G G126U	≤ -4.2
C57G C63A G70C G86U G140U	≤ -4.2
C57U C85U U102A C114A	-3.9
C57G A150G	-1.23
U56G C79A G83C U127C G133C	≤ -4.2
U56A G59U C63G C87U	1.72
U56G A73G C87A G94U C118U	≤ -4.2
C57A C96U C108U G140A	≤ -4.2

Variant	polymerase ribozyme fitness (log ratio)
U56A G86A U90G G100A U139C G152C	≤ -4.2
C57A C87G G126U	≤ -4.2
U56C G68C C87U C99A	≤ -4.2
U56A G74A U104A C131G U144G C149U	≤ -4.2
U56C A60G U61G A66G C87U A122G	≤ -4.2
C57U A66C G92U C93A	≤ -4.2
U56G G83U C125U	-1.82
U56A G67C G80A	≤ -4.2
U56G G83A G88C C93G C118G	≤ -4.2
C57U C118G U145C	-0.881
U56G A60C C87A G128A A137C G141U	≤ -4.2
G58A A60C G62A C76G C93A U134C	≤ -4.2
C57A G133U	-3.13
U56A G80C G92A	≤ -4.2
C57U G83U	-1.72
C57G G70A C95U C105U A113C C114G	≤ -4.2
C57A C75U G92C G140U	≤ -4.2
C57G G67A C69U G80A G94A C103A G126C G136U A137G	≤ -4.2
U56A G83A C108U G133A	≤ -4.2
C57U U101G	-0.262
C57U U101A	0.41
U56G G59U C87A	≤ -4.2
C57A G65A U82G	-0.673
C57A G59C C87G U146G	≤ -4.2

Variant	polymerase ribozyme fitness (log ratio)
G58A A64G G88U C96A C105U C125U G126C	≤ -4.2
C57U C76G C96U	≤ -4.2
C57G C87G C93A A98G G124A U134G	≤ -4.2
U56A G92C U139A G140U	-3.76
C57G C93G	-4.06
U56G U90G A119U G141U	≤ -4.2
C57U G71U C79G	≤ -4.2
U56C C76A A91U A97G G140A G141U	≤ -4.2
U56G A66C G81A C87U G117A	≤ -4.2
C57A C85U G124U U130A	-2.9
C57G G83A G124U G141A	-1.22
U56A G58U A119G C131A	-2.04
C57U G84U G126C	-0.969
C57U A66G	-3.4
C57U A66C	-3.93
U56G G58C G68A	≤ -4.2
G58A A66C G74C C131G G136U	≤ -4.2
U56G C57G G80C A91C C99A C103U G133C A137C U148G C149U	≤ -4.2
U56A G59U C79A G94A C105A C149U	≤ -4.2
C57U C76U G83C U109G A110C A138C	≤ -4.2
C57U C125A	-0.844
C57U C76A C79U C85U G86U U134C	≤ -4.2
U56G A97C	-1.65
C57G C76A C95U C129G A137C U144G	≤ -4.2

Variant	polymerase ribozyme fitness (log ratio)
U56G C103A A122U U146A	-2.78
C57G U78A G84A G94C C103U C105A G133U G140U U144C	≤ -4.2
U56G A64U A107C G143C U145G	≤ -4.2
C57A A64C C129G	≤ -4.2
U56G A73G C87G U101C A115C G140U	≤ -4.2
U56G G80C C85U C96G U109C A147G A150U	≤ -4.2
C57U G62A G67C G74A G124A	≤ -4.2
U56A G58C C79G C87U	≤ -4.2
U56A U82G	0.243
C57U C95A U109G	-0.696
U56A U104G C105A G124U G140A U145A	≤ -4.2
C57A G68U C69A G81C U134C	≤ -4.2
C57G U82C C93A C95U C116U	-3.34
U56A U61G	-1.7
C57U A91G A97G U135A G143A	≤ -4.2
U56A G67A A73G G83A A91G U109C A110U A137U	≤ -4.2
C57G C87A	≤ -4.2
U56A G74C A122G	≤ -4.2
C57U C85A G124U A147C C149G	≤ -4.2
C57U C99U A121U G133U U139G	≤ -4.2
C57A A89G A91G U145C U151G	≤ -4.2
U56A G58U A91U	≤ -4.2
U56A G92C C96A U148A	≤ -4.2
